Measurements as given in PMC8602290, “G3BP1 inhibits Cul3^SPOP to amplify AR signaling and promote prostate cancer” (Nature Communications, 2021).

Target: T1, Speckle-type POZ protein (SPOP), endogenous in 22Rv1 cells (human (endogenous in 22Rv1), UniProt O43791 1-374)
T1 construct: SPOP, endogenous protein of human 22Rv1 prostate cancer cells; also called endogenous SPOP; source: endogenous, 22Rv1 lysate or cells
Assay: proximity ligation; 22Rv1 cells transfected with FLAG-G3BP1 constructs; Duolink II kit, antibodies against FLAG-M2 and SPOP (endogenous); percentage of cells with signal
Conditions: partners not purified

T1 sequence (O43791 whole entry): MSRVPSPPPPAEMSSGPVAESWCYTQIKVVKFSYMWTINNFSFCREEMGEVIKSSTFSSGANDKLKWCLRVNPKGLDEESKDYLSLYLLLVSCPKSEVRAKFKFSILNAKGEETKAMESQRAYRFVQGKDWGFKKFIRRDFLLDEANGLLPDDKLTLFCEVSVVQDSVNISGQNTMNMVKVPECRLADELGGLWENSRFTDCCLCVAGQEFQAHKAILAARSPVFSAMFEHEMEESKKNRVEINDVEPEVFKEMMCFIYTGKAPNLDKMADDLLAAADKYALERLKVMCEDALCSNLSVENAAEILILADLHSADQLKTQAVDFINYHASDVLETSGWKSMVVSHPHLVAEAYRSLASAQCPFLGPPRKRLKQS

B1: FLAG-G3BP1^NTF2 (22Rv1) (domain or fragment)
chain: not shown
notes: also called FLAG-NTF2; NTF2 ([…] aa); source: 22Rv1, transfected, in cells or lysate
  percentage of cells with PLA positive signal: 75%
